In assay [1] the target is T1, FLAG-tagged IRAK2 Sumo mutant (K123/182/592R) (mouse) (UniProt Q8CFA1).
T1 sequence: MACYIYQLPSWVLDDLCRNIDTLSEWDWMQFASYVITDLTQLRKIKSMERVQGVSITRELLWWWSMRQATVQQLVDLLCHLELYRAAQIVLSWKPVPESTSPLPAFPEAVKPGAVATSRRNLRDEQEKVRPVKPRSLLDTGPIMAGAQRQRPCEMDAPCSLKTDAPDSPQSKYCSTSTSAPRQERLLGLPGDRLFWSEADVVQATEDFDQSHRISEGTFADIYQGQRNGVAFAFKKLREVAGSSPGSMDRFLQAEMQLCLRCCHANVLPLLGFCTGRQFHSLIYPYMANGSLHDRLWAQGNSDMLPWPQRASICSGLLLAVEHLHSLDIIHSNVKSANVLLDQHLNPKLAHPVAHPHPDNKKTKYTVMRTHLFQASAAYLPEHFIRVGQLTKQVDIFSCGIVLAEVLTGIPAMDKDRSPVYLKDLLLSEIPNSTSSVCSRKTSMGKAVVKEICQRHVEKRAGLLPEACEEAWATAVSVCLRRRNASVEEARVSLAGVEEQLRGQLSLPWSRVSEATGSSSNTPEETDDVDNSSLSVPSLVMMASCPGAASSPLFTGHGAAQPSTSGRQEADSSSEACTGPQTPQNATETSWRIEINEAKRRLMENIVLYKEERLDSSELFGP
The experiment in a line: proximity ligation; HeLa cells transfected with HA-tagged SRSF1 and FLAG-tagged IRAK2 WT or mutants; mouse anti-HA and rabbit anti-FLAG; Duolink In Situ Green Kit; fixed, permeabilised cells.

By UniProt entry, the sequences of proteins in these tests, tags left out.
UniProt Q6PDM2: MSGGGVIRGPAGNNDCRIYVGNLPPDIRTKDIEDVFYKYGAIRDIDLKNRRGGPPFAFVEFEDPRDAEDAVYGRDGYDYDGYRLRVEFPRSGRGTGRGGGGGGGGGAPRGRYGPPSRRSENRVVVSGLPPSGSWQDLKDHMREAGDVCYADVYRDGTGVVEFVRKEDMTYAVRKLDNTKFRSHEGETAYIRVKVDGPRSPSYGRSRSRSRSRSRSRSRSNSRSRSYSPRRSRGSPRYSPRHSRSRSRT
UniProt Q14974: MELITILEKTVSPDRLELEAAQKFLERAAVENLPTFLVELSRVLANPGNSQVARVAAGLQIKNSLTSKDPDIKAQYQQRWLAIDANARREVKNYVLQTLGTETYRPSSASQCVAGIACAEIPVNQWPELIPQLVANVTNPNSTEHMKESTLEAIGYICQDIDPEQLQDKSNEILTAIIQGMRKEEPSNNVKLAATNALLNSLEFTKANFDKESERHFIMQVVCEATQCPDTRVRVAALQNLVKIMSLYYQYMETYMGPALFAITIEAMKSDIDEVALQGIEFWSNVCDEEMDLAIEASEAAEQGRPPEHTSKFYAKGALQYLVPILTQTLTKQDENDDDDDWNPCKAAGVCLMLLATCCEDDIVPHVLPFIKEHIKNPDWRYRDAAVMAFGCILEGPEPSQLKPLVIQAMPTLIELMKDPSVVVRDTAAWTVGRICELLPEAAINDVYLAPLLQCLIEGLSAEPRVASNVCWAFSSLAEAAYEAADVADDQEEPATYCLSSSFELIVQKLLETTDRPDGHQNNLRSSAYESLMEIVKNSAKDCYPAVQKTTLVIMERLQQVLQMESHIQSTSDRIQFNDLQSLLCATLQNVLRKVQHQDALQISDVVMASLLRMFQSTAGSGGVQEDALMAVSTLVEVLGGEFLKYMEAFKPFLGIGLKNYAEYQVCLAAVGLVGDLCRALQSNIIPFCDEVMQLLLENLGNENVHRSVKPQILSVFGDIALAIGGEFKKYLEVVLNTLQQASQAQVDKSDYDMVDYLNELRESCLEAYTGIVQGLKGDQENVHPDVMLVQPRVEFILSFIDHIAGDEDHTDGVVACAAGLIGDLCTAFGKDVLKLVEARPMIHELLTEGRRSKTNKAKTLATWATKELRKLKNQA
UniProt P49792: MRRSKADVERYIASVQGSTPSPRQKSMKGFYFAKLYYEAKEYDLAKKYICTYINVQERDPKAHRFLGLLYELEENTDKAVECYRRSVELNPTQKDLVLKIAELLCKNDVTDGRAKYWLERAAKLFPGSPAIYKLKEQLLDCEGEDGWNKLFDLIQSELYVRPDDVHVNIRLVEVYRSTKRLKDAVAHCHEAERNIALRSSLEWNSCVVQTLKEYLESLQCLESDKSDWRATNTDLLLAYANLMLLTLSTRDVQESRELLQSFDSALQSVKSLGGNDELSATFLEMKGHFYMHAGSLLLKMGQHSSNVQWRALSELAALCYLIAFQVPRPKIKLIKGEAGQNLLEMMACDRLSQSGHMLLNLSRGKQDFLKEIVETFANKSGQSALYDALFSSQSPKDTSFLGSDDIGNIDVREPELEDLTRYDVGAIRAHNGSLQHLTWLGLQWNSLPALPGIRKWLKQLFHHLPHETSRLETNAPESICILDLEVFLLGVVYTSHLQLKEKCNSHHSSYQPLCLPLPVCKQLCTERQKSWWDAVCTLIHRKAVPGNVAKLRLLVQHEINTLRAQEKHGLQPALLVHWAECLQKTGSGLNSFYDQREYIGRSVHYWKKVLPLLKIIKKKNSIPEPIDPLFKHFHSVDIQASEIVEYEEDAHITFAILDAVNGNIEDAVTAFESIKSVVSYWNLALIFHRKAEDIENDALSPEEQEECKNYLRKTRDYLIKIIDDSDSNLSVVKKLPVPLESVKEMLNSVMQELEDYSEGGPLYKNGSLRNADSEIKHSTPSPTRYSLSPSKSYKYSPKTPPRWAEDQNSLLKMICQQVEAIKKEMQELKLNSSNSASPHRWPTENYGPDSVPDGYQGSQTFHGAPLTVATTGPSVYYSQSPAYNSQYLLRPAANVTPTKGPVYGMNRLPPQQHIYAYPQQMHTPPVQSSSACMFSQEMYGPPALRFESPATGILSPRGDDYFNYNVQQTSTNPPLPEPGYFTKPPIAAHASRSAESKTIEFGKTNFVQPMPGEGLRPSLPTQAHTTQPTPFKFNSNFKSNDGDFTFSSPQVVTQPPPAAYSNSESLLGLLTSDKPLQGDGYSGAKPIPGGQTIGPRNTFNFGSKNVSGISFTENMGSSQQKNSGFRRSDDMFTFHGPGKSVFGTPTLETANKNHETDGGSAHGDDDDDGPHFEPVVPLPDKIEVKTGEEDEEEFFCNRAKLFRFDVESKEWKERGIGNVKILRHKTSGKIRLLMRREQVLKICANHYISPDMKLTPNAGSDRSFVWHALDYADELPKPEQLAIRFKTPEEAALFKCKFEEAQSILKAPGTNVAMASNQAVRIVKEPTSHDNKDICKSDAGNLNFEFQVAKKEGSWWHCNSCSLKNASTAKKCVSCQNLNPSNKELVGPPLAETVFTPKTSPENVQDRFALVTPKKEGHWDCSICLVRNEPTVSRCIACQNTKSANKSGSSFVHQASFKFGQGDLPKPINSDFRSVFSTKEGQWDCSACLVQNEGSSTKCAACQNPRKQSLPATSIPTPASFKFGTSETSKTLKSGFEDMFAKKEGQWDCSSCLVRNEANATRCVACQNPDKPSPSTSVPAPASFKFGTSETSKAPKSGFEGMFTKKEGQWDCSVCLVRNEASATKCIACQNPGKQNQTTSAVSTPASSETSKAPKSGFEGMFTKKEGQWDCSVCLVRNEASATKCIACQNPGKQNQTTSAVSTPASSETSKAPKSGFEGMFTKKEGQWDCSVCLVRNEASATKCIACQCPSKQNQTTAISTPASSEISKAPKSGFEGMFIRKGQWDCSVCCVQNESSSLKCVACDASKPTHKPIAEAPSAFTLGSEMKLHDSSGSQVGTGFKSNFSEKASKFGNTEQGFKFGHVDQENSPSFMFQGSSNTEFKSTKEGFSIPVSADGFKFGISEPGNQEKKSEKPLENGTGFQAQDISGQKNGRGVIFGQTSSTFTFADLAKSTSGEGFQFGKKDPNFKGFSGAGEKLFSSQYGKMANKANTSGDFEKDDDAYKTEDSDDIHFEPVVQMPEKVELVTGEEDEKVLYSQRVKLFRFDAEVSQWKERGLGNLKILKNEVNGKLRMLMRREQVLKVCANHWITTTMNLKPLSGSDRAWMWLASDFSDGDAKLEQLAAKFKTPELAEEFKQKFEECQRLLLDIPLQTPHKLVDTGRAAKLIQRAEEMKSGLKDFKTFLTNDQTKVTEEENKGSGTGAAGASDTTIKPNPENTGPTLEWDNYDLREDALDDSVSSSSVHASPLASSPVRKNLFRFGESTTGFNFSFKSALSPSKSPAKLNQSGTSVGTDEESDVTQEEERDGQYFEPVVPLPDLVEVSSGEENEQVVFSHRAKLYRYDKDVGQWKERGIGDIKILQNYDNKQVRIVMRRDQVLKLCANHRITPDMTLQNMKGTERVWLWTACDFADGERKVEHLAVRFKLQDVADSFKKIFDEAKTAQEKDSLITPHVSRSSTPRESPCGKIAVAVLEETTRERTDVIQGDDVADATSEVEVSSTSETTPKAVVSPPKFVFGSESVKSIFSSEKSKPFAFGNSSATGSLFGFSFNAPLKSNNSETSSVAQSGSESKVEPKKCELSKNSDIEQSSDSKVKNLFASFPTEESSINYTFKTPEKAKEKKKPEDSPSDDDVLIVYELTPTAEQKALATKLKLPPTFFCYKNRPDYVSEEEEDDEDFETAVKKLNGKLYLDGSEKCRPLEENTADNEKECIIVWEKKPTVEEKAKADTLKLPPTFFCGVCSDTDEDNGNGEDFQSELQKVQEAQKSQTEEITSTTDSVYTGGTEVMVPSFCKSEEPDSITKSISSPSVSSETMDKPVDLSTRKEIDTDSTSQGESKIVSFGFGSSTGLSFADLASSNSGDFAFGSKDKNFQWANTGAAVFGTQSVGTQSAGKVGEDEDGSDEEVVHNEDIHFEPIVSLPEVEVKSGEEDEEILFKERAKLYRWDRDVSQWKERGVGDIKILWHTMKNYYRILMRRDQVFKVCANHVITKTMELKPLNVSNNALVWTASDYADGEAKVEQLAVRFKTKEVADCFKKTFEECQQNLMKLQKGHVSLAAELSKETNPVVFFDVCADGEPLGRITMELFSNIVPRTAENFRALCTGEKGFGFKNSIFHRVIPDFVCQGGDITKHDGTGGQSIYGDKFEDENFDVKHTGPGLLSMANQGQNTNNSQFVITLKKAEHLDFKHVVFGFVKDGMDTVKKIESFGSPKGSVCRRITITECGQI

Assay [2] has as its target T2, FLAG-tagged IRAK2 WT (mouse) (UniProt Q8CFA1).
T2 sequence: T1 sequence with R123K, R182K, R592K
Described as above.

Assay [3] has as its target T3, FLAG-tagged IRAK2 KK235AA (mouse) (UniProt Q8CFA1).
T3 sequence: T1 sequence with R123K, R182K, K235A, K236A, R592K
The description is as above.

For assay [4], the target named is T4, FLAG-tagged IRAK2 NLS mutant (K361/362/364A) (mouse) (UniProt Q8CFA1).
T4 sequence: T1 sequence with R123K, R182K, K361A, K362A, K364A, R592K
As to the kind of experiment: co-IP; HeLa cells transiently transfected with FLAG-tagged IRAK2 WT or mutants; IP with anti-FLAG; western blot for endogenous proteins; lysis buffer 0.5% Triton X-100, 20 mM Hepes pH 7.4, 150 mM NaCl.

Assay [5] addresses T5, FLAG-tagged IRAK2 S136A/T140A double mutant (mouse) (UniProt Q8CFA1).
T5 sequence: T1 sequence with R123K, S136A, T140A, R182K, R592K
The assay is described as above.

The target in assay [6] is T2, FLAG-tagged IRAK2 WT (mouse). The assay is described as above.
In assay [7] the target is T6, FLAG-tagged IRAK2 H351A (mouse) (UniProt Q8CFA1).
T6 sequence: T1 sequence with R123K, R182K, H351A, R592K
The assay is described as above.

Assay [8] concerns the target T7, FLAG-tagged IRAK2 N333A (mouse) (UniProt Q8CFA1).
T7 sequence: T1 sequence with R123K, R182K, N333A, R592K
Described as above.

Assay [9] concerns the target T3, FLAG-tagged IRAK2 KK235AA (mouse). Described as above.

Where a chain is given by its changes, count along the chain named. Results are given in words; binding and its absence hold for the method and conditions named. Binding seen in cells or lysates may run through a third protein. Some binding calls cover weakened binding; strength is not graded here. Where a sequence is shown, tags or fusion partners need not be part of it.

In the case of “HA-tagged SRSF1 (from UniProt Q6PDM2 1-248)”, the binding entry in [1] is “no binding”; in assay [2], “binds”; in assay [3], “no binding”.
In the case of importin-β (from UniProt Q14974 1-876), the binding result in [4] is reported as “no binding”; in assay [5], “binds”; in [6], “binds”; in assay [7], “binds”; in assay [8] it was “binds”; in [9], “binds”.
On to RanBP2 (from UniProt P49792 1-3224), for which the binding entry in assay [4] is on record as “no binding”; in [6], “binds”; in [7], “no binding”; in [8] it was “no binding”; in assay [9] it was “no binding”.

The values above are taken from paper PMC5675595.
